Assay [1] concerns the target T1, TAP-tagged Dis3 (S. cerevisiae) (UniProt Q08162).
T1 sequence: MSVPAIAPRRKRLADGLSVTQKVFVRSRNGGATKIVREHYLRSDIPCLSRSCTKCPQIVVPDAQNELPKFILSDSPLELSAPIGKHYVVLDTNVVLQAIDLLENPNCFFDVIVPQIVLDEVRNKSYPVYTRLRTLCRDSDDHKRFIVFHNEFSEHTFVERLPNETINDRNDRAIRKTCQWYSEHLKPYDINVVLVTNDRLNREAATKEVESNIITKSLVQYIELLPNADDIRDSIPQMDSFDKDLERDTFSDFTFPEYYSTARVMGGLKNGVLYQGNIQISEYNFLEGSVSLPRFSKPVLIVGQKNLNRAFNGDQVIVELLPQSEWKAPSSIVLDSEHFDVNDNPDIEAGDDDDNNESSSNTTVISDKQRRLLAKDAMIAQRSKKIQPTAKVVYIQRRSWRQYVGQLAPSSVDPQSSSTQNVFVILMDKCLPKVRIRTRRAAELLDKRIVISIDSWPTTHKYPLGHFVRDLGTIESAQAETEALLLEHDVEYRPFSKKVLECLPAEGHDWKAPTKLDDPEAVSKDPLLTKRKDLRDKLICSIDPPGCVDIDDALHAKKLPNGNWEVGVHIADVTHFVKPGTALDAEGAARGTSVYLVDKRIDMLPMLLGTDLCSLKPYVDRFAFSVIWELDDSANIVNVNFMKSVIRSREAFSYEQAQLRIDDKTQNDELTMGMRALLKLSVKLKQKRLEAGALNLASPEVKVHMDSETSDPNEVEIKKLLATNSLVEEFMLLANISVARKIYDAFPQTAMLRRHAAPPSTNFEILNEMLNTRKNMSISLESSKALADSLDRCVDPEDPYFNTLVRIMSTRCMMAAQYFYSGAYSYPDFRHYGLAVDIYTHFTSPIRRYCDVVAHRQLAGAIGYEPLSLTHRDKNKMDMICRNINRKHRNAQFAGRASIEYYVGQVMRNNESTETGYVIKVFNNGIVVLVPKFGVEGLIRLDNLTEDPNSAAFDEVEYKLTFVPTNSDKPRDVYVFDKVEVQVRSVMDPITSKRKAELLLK
The experiment in a line: co-IP; TAP-tagged Dis3 precipitated on IgG Sepharose beads from lysates of DIS3-TAP yeast cells expressing Myc-tagged Nab3 proteins; IPP150 buffer, overnight at 4°C; anti-Myc immunoblot. (In general: Immunoblotting shows a protein as a band on a membrane.)

The target in assay [2] is T2, TAP-tagged Rrp6 (S. cerevisiae) (UniProt Q12149).
T2 sequence: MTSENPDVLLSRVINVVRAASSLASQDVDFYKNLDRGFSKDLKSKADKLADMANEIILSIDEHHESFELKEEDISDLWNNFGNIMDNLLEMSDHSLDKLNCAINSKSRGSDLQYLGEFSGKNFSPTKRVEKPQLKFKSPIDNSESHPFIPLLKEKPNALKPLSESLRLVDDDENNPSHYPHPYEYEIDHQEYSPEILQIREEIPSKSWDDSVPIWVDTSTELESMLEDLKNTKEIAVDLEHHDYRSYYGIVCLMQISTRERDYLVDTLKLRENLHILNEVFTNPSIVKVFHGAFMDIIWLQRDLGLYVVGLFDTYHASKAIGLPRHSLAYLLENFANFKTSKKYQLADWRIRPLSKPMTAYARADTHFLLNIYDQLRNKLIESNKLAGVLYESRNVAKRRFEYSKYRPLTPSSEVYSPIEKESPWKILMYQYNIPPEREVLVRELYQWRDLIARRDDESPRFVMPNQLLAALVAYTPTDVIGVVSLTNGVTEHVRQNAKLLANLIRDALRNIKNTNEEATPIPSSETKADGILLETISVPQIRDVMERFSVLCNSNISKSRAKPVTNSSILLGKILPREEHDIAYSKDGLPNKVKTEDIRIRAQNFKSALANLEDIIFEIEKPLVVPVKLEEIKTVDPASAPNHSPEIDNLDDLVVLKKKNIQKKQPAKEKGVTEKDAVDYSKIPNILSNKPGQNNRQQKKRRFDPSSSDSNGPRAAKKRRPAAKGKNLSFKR
The experiment in a line: co-IP; TAP-tagged Rrp6 precipitated on IgG Sepharose beads from lysates of RRP6-TAP yeast cells expressing Myc-tagged Nab3 proteins; IPP100 buffer (100 mM NaCl), overnight at 4°C; absence of RNase A; anti-Myc immunoblot.

The next assay addresses T3, TAP-tagged Nrd1 (S. cerevisiae, UniProt P53617 1-575).
T3 construct: also called Nrd1-TAP; source: S. cerevisiae NRD1-TAP strain (ACY2293; Thermo Scientific Open Biosystems), in lysate
T3 sequence (looked up): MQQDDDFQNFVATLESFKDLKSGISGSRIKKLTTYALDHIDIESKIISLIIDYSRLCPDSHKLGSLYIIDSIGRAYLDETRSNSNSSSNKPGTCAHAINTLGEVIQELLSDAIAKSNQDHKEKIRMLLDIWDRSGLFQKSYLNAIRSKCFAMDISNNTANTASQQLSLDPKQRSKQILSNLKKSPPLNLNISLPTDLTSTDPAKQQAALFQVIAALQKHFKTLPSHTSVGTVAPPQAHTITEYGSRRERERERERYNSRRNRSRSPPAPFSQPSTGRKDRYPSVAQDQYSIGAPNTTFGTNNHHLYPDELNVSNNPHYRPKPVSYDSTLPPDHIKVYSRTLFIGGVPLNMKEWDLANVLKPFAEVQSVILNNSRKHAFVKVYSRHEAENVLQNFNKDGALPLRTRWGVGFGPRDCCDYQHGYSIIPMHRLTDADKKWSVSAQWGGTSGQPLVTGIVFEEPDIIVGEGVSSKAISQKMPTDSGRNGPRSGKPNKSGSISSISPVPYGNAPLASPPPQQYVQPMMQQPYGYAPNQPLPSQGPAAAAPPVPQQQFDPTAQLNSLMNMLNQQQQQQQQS
The experiment in a line: co-IP; TAP-tagged Nrd1 precipitated on IgG Sepharose beads from lysates of NRD1-TAP yeast cells expressing Myc-tagged Nab3 proteins; IPP150 buffer (10 mM Tris-HCl pH 8, 150 mM NaCl, 0.1% NP-40), overnight at 4°C; anti-Myc immunoblot; % bound relative to input and to bound wild-type Nab3.

Assay [3] addresses T2, TAP-tagged Rrp6 (S. cerevisiae). The assay can be described thus: co-IP; TAP-tagged Rrp6 precipitated on IgG Sepharose beads from lysates of RRP6-TAP yeast cells expressing Myc-tagged Nab3 proteins; IPP100 buffer (100 mM NaCl), overnight at 4°C; presence of RNase A (5 μl of 20 mg/ml); anti-Myc immunoblot.

Positions count from the first letter of the chain named. Names and notes keep the numbering of the source. No constants are given. Whether binding was seen depends on the method and setting. Binding seen in cells or lysates may run through a third protein. Some results given as binding are weak or reduced against the parent protein; the word gives no strength. Where a sequence is shown, tags or fusion partners need not be part of it.

B1: Myc-tagged Nab3 (protein, UniProt P38996 1-802)
chain: MSDENHNSDVQDIPSPELSVDSNSNENELMNNSSADDGIEFDAPEEEREAEREEENEEQHELEDVNDEEEEDKEEKGEENGEVINTEEEEEEEHQQKGGNDDDDDDNEEEEEEEEDDDDDDDDDDDDEEEEEEEEEEGNDNSSVGSDSAAEDGEDEEDKKDKTKDKEVELRRETLEKEQKDVDEAIKKITREENDNTHFPTNMENVNYDLLQKQVKYIMDSNMLNLPQFQHLPQEEKMSAILAMLNSNSDTALSVPPHDSTISTTASASATSGARSNDQRKPPLSDAQRRMRFPRADLSKPITEEEHDRYAAYLHGENKITEMHNIPPKSRLFIGNLPLKNVSKEDLFRIFSPYGHIMQINIKNAFGFIQFDNPQSVRDAIECESQEMNFGKKLILEVSSSNARPQFDHGDHGTNSSSTFISSAKRPFQTESGDMYNDDNGAGYKKSRRHTVSCNIFVKRTADRTYAIEVFNRFRDGTGLETDMIFLKPRMELGKLINDAAYNGVWGVVLVNKTHNVDVQTFYKGSQGETKFDEYISISADDAVAIFNNIKNNRNNSRPTDYRAMSHQQNIYGAPPLPVPNGPAVGPPPQTNYYQGYSMPPPQQQQQQPYGNYGMPPPSHDQGYGSQPPIPMNQSYGRYQTSIPPPPPQQQIPQGYGRYQAGPPPQPPSQTPMDQQQLLSAIQNLPPNVVSNLLSMAQQQQQQPHAQQQLVGLIQSMQGQAPQQQQQQLGGYSSMNSSSPPPMSTNYNGQNISAKPSAPPMSHQPPPPQQQQQQQQQQQQQQQQPAGNNVQSLLDSLAKLQK
In the case of B1, the binding result (in assay [1]; in assay [2]; in the assay with TAP-tagged Nrd1; in assay [3]) was “binds” in each case.

B2: Myc-tagged nab3-S399A RRM mutant (protein, UniProt P38996 1-802)
chain: B1 chain with S399A
Consider B2, for which, in the assay with TAP-tagged Nrd1, the binding result is “binds”.

B3: Myc-tagged nab3-11 RRM mutant (F371L-P374L) (protein, UniProt P38996 1-802)
chain: B1 chain with F371L, P374L
On to B3, for which, in the assay with TAP-tagged Nrd1, the binding entry is “binds”.

B4: Myc-tagged nab3-R331A RRM mutant (protein, UniProt P38996 1-802)
chain: B1 chain with R331A
As for B4, in the assay with TAP-tagged Nrd1, the binding entry is reported as “binds”.

B5: Myc-tagged nab3-ΔNBD mutant (Δ204–248) (natural protein, S. cerevisiae, UniProt P38996 1-802, looked up)
chain: MSDENHNSDVQDIPSPELSVDSNSNENELMNNSSADDGIEFDAPEEEREAEREEENEEQHELEDVNDEEEEDKEEKGEENGEVINTEEEEEEEHQQKGGNDDDDDDNEEEEEEEEDDDDDDDDDDDDEEEEEEEEEEGNDNSSVGSDSAAEDGEDEEDKKDKTKDKEVELRRETLEKEQKDVDEAIKKITREENDNTHFPTNMSDTALSVPPHDSTISTTASASATSGARSNDQRKPPLSDAQRRMRFPRADLSKPITEEEHDRYAAYLHGENKITEMHNIPPKSRLFIGNLPLKNVSKEDLFRIFSPYGHIMQINIKNAFGFIQFDNPQSVRDAIECESQEMNFGKKLILEVSSSNARPQFDHGDHGTNSSSTFISSAKRPFQTESGDMYNDDNGAGYKKSRRHTVSCNIFVKRTADRTYAIEVFNRFRDGTGLETDMIFLKPRMELGKLINDAAYNGVWGVVLVNKTHNVDVQTFYKGSQGETKFDEYISISADDAVAIFNNIKNNRNNSRPTDYRAMSHQQNIYGAPPLPVPNGPAVGPPPQTNYYQGYSMPPPQQQQQQPYGNYGMPPPSHDQGYGSQPPIPMNQSYGRYQTSIPPPPPQQQIPQGYGRYQAGPPPQPPSQTPMDQQQLLSAIQNLPPNVVSNLLSMAQQQQQQPHAQQQLVGLIQSMQGQAPQQQQQQLGGYSSMNSSSPPPMSTNYNGQNISAKPSAPPMSHQPPPPQQQQQQQQQQQQQQQQPAGNNVQSLLDSLAKLQK
notes: also called nab3 NBD mutant; nab3-NBD; source: S. cerevisiae (NRD1-TAP, RRP6-TAP or DIS3-TAP cells), 2μ URA3 plasmid, in lysate; not shown: 2xMyc, C-terminal, kept
For B5, the values for the binding entry in assay [1], in assay [2] and in assay [3] were “no binding”, “binds” and “binds”, respectively.

These data come from publication PMC4361618, “Nab3 Facilitates the Function of the TRAMP Complex in RNA Processing via Recruitment of Rrp6 Independent of Nrd1” (PLoS Genetics, 2015).
